From PubChem BioAssay AID360 (National Center for Advancing Translational Sciences (NCATS), 2006)
About 550 (1.1%) of roughly 48,000 compounds were called active. Not shown: some 4% with an inconclusive outcome. Cut-off read from the data, not from the text of the source: active = potency below about 15 µM; inconclusive = mostly about 16 µM to 33 µM; inactive = weaker than that. This is one part of the list.

molecular target: Lysosomal acid glucosylceramidase (Homo sapiens) (UniProt P04062); assay: Glucocerebrosidase; details: purified enzyme, resorufin glucoside fluorescence (screen aimed at inhibitors), 20 min; series mostly up to 77 µM;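 note: the screen sought inhibitors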
Chain of UniProt P04062 (P04062 whole entry, looked up): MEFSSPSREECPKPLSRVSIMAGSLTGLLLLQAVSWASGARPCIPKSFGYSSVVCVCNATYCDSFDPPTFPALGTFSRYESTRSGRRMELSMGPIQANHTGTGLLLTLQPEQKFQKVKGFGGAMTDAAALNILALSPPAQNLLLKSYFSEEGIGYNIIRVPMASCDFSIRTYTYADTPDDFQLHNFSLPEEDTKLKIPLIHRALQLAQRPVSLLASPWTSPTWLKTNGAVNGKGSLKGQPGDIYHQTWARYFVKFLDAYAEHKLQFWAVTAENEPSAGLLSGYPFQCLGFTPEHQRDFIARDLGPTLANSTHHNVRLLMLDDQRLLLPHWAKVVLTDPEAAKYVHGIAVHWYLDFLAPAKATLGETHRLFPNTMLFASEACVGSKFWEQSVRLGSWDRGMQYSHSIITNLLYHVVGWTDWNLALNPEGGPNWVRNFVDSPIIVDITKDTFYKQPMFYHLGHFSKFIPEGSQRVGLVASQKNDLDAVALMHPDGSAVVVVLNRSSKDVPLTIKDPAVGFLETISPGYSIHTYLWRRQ
How it was run: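 Compounds titrated against 0.2 nM normal enzyme, 30 uM resorufin beta-D-glucopyranoside substrate, citrate/phosphate buffer with taurocholate and tween-20, pH 5.9. Reaction ran 20 min at room temperature; fluorescence (Ex 548/Em 600) gave AC50.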
Potency is the fitted concentration of half-maximal effect.

SMILES	Potency
CCn1c(SCC(=O)O)nnc1-c1cc2c(C)nn(-c3ccccc3)c2s1	inactive: > 76.9 µM
Cc1cc(SCC(N)=O)nc(SCC(=O)c2ccccc2)n1	inactive: > 76.9 µM
O=C(Nc1ccccc1N1CCN(c2ccccc2)CC1)c1cccc(F)c1	inactive: > 76.9 µM
CCOC(=O)CN1C(=O)C(O)=C(C(C)=O)C1c1ccc(F)cc1 (stereo not drawn)	inactive: > 76.9 µM
Oc1c(C(c2ccccn2)N2CCOCC2)ccc2cccnc12 (stereo not drawn)	inactive: > 76.9 µM
Cc1[nH]c(=O)[nH]c(=O)c1S(=O)(=O)N1CCCC(C(=O)NCCc2ccccc2)C1 (stereo not drawn)	inactive: > 76.9 µM
CC(c1nnc(SCC(=O)c2c(N)n(C)c(=O)n(C)c2=O)n1-c1ccc(Cl)cc1)N(C)C (stereo not drawn)	inactive: > 76.9 µM
CC(C)OCCCn1c(=NC(=O)c2ccncc2)c(C#N)cc2c(=O)n3ccccc3nc21	inactive: > 76.9 µM
N#Cc1cccc(C(c2nnnn2Cc2ccccc2)N2CCCC2)c1 (stereo not drawn)	inactive: > 76.9 µM
Cc1ccc(C)c(C(=O)n2cnnc2N)c1	inactive: > 76.9 µM
O=C(C1=C(O)C(=O)N(CCN2CCOCC2)C1c1ccccc1)c1cccs1 (stereo not drawn)	inactive: > 76.9 µM
O=C(C1CCCN(S(=O)(=O)c2cccc3nonc23)C1)N1CCC(Cc2ccccc2)CC1 (stereo not drawn)	inactive: > 76.9 µM
CC(=O)N(Cc1ccco1)C1(C(=O)NC2CCCCC2)CCCCC1	inactive: > 76.9 µM
CCC(=O)N1C(=O)CCN(C(C)=O)c2ccccc21	inactive: > 76.9 µM
COc1ccc(C(=O)N2CCN(S(=O)(=O)N3CCOCC3)CC2)cc1OC	inactive: > 76.9 µM
Cc1ccc(-n2nnc3c(=O)n(Cc4cc(C)ccc4C)cnc32)cc1	inactive: > 76.9 µM
Cn1c(SCC(=O)Nc2cccc(F)c2)nnc1-c1cc2ccccc2o1	inactive: > 76.9 µM
COc1ccc(/C=N\n2nnc3ccccc32)cc1	inactive: > 76.9 µM
COc1ccccc1NC(=O)CSc1nc(O)cc(=O)n1C	inactive: > 76.9 µM
COC(=O)c1cccc(C(=O)Nc2ccc(C)cc2)n1	inactive: > 76.9 µM

SMILES	Potency
Cc1noc(C)c1COC(=O)CCCc1nc2ccccc2s1	inactive: > 76.9 µM
CCOC(=O)c1cc2c(ccn2C)n1CC(=O)N1CCN(c2ccccc2OC)CC1	inactive: > 76.9 µM
CCc1cc2ccc(C)cc2nc1SCC(=O)N1CCN(C(=O)c2ccco2)CC1	inactive: > 76.9 µM
O=C(Nc1cccc(NC(=O)C2CC3CCCC(C2)C3=O)n1)C1CC2CCCC(C1)C2=O (stereo not drawn)	inactive: > 76.9 µM
CCN(CC)S(=O)(=O)c1ccc(-c2nnc(SCc3nnc(-c4ccccc4)o3)o2)cc1	inactive: > 76.9 µM
COc1ccc(C2(C(=O)O)CCCC2)cc1	inactive: > 76.9 µM
CC(C)c1ccc(NC(=O)C2CCN(S(C)(=O)=O)CC2)cc1	active: 12.4 µM
COc1ccc(CN2CCOCC2)c(C)c1C	inactive: > 76.9 µM
CC(C)CC(=O)N(c1ccc(F)cc1)C1C=CS(=O)(=O)C1 (stereo not drawn)	inactive: > 76.9 µM
CC1CCN(CCc2nc3cc(NC(=O)Nc4ccccc4)ccc3n2C)CC1	inactive: > 76.9 µM
CCOc1ccc(NC(=O)NCCN2C(C)CCCC2C)cc1 (stereo not drawn)	inactive: > 76.9 µM
O=C(c1ccco1)N1CCN(C(c2ccccc2)c2nnnn2Cc2cccs2)CC1 (stereo not drawn)	inactive: > 76.9 µM
COCCn1nnnc1C(c1ccc(O)c(OC)c1)N1CCc2ccccc2C1 (stereo not drawn)	inactive: > 76.9 µM
OCCn1c(SC2CCCCC2)nc2ccccc21	inactive: > 76.9 µM
O=C1CC(c2ccc3c(c2)OCO3)c2cc3c(cc2N1)OCCO3 (stereo not drawn)	inactive: > 76.9 µM
CN(C)C(=O)N1CCN(C(=O)N(C)C)CC1	inactive: > 76.9 µM
Cn1c(Cn2cnc3ccccc32)nnc1SCC(=O)CC(=O)Nc1ccccc1	inactive: > 76.9 µM
Clc1ccc(-c2nn3c(C4COc5ccccc5O4)nnc3s2)cc1 (stereo not drawn)	inactive: > 76.9 µM
CC(=O)C1=C(O)C(=O)N(Cc2cccnc2)C1c1ccccc1 (stereo not drawn)	inactive: > 76.9 µM
CS(=O)(=O)N(CCc1ccccc1)CC(=O)N1CCN(c2ccccc2F)CC1	inactive: > 76.9 µM

SMILES	Potency
Cc1csc2nc(=O)c3ccccc3n12	inactive: > 76.9 µM
COc1cc(CN/C(C)=C(\C#N)C(N)=O)cc(OC)c1OC	inactive
O=C(NC1CCCC1)C(c1ccccn1)N(C(=O)c1csnn1)C1CC1 (stereo not drawn)	inactive: > 76.9 µM
O=C(CN1CCN(CCC(=O)Nc2ccccc2F)CC1)Nc1ccc(Cl)cc1	inactive: > 76.9 µM
COc1ccc(-c2nnc(SC)n2C)cc1	inactive: > 76.9 µM
CCOC(=O)c1cc(=O)n2nc(-c3ccccc3F)nc2s1	inactive: > 76.9 µM
Cc1c(C(=O)NCc2ccccn2)oc2ccccc12	inactive: > 76.9 µM
COc1ccc(C2c3c(oc4c(C)cc(C)cc4c3=O)C(=O)N2Cc2cccnc2)cc1OC (stereo not drawn)	inactive: > 76.9 µM
Cc1ccc2c(c1)C1CN(C)CCC1N2C(=O)Nc1ccc(Cl)cc1 (stereo not drawn)	inactive
O=C(O)C1C2C=CC(C2)C1C(=O)N1CCN(C/C=C/c2ccccc2)CC1 (stereo not drawn)	inactive: > 76.9 µM
Cc1ccc(-c2nnnn2CS(=O)(=O)c2ccccc2)cc1	inactive: > 76.9 µM
CCOC(=O)c1cc2oc(C)cc2n1CC(=O)OC1CCCCC1	inactive: > 76.9 µM
CCn1nnnc1SCC(=O)NCc1cccs1	inactive: > 76.9 µM
O=C(c1cnn2cccnc12)N1CCN(c2ccccc2)CC1	inactive: > 76.9 µM
CCOc1ccc(-n2c(Cc3ccccc3)nnc2SCc2c(C)noc2C)cc1	inactive: > 76.9 µM
COc1ccc(-n2ncc3c(=O)n(CC(=O)N4CCCc5ccccc54)cnc32)cc1	inactive
O=C(NC1CC1)C1CCN(c2ccc(S(=O)(=O)N3CCOCC3)cc2)CC1	inactive: > 76.9 µM
Nn1c(SCc2cn3ccsc3n2)nnc1-c1ccncc1	inactive: > 76.9 µM
